Laboratory results: the antibiotic and cytotoxicity screens of Wong et al. (2023)
This is one part of the list.

What was measured:
HSkMC = human skeletal muscle cells; experiment: cytotoxicity call (relative viability < 0.9); conditions: 10 µM
HepG2 = experiment: cytotoxicity call (relative viability < 0.9); conditions: 10 µM
S. aureus RN4220 = experiment: growth inhibition call (relative growth <= 0.2); conditions: 50 µM

Row | SMILES | cytotoxicity call (HSkMC) | cytotoxicity call (HepG2) | growth inhibition call (S. aureus RN4220)
1 | CN1CCN(C(=O)C[C@@H]2CC[C@H]3[C@@H](COC[C@H](O)CN3C(=O)Nc3cc(Cl)cc(Cl)c3)O2)CC1 | inactive | inactive | inactive
2 | COc1nn(C)cc1C(=O)NC1=NCCS1 | inactive | inactive | inactive
3 | CC/N=c1\nc(NCC)[nH]c(=S)[nH]1 | inactive | inactive | inactive
4 | COc1ccc2c3c([nH]c2c1)[C@H](CO)N(C[C@]13CCN(CC1)S(=O)(=O)c1cn(cn1)C)C(=O)Nc1ccc(cc1)F | inactive | inactive | inactive
5 | C[C@H](CO)N1C[C@H](C)[C@@H](CN(C)C(=O)C2CCCCC2)OCCCC[C@H](C)Oc2ccc(NC(=O)NC3CCCCC3)cc2C1=O | inactive | inactive | inactive
6 | COc1cccc(-c2ccc3c(c2)O[C@H](CN(C)C(=O)C2CC2)[C@@H](C)CN([C@H](C)CO)S3(=O)=O)c1 | inactive | inactive | inactive
7 | Nc1cnc(Cl)nc1N | inactive | inactive | inactive
8 | Cc1noc(C)c1NC(=O)N(C)C[C@@H]1Oc2c(NC(=O)Nc3ccc(C(F)(F)F)cc3)cccc2C(=O)N([C@@H](C)CO)C[C@H]1C | inactive | inactive | inactive
9 | C[C@H]1CCCCO[C@H](CN(C)C(=O)Cc2ccccc2)[C@@H](C)CN([C@@H](C)CO)C(=O)c2cc(NC(=O)c3ccccc3)ccc2O1 | inactive | inactive | inactive
10 | C[C@@H]1CCCCO[C@@H](CN(C)Cc2ccccc2)[C@H](C)CN([C@@H](C)CO)C(=O)c2cc(NC(=O)Nc3ccccc3)ccc2O1 | inactive | active | inactive
11 | NC(=S)Nc1ccc(S(N)(=O)=O)cc1 | inactive | inactive | inactive
12 | C[C@@H]1CN([C@@H](C)CO)C(=O)c2cc(C#CCN(C)C)cnc2O[C@H]1CN(C)Cc1ccc2c(c1)OCO2 | inactive | inactive | inactive
13 | C[C@@H]1OC2=C(Cl)C(=O)N3CCC[C@@H]3C[C@]21O | inactive | inactive | inactive
14 | COc1ccc(CN(C)C[C@@H]2OCCCC[C@H](C)Oc3ccc(NS(=O)(=O)c4ccc(Cl)cc4)cc3C(=O)N([C@@H](C)CO)C[C@@H]2C)cc1 | inactive | inactive | inactive
15 | Cc1cc(=O)n2ncnc2[nH]1 | inactive | inactive | inactive
16 | COc1cccc(S(=O)(=O)Nc2ccc3c(c2)[C@@H]2C[C@@H](CC(=O)NCc4cccc(F)c4)O[C@@H](CO)[C@@H]2O3)c1 | inactive | inactive | inactive
17 | COc1ccc2c3c([nH]c2c1)[C@@H](CO)N(C[C@]13CCN(CC1)Cc1nccs1)C(=O)C1CCOCC1 | inactive | inactive | inactive
18 | C[C@@H]1CN([C@@H](C)CO)C(=O)c2cc(NS(=O)(=O)c3ccc(Cl)cc3)ccc2O[C@@H](C)CCCCO[C@@H]1CN(C)Cc1ccc(C(F)(F)F)cc1 | inactive | inactive | inactive
19 | C[C@H](CO)N1C[C@H](C)[C@@H](CN(C)Cc2ccc(Cl)c(Cl)c2)Oc2c(NC(=O)c3ccc(-c4nccs4)cc3)cccc2C1=O | inactive | inactive | inactive
20 | C[C@H](CO)N1C[C@H](C)[C@@H](CN(C)Cc2ccc(C(F)(F)F)cc2)Oc2ccc(NC(=O)Nc3cccc4ccccc34)cc2CC1=O | inactive | inactive | inactive
21 | Cc1ccc(S(=O)(=O)Nc2ccc3c(c2)C(=O)N([C@H](C)CO)C[C@@H](C)[C@H](CN(C)C(=O)C2CCCCC2)OCCCC[C@@H](C)O3)cc1 | inactive | inactive | inactive
22 | NC(=O)NC(=O)Cc1ccccc1 | inactive | inactive | inactive
23 | C[C@@H]1CCCCO[C@H](CN(C)C(=O)NC2CCCCC2)[C@H](C)CN([C@H](C)CO)C(=O)c2cc(NC(=O)Nc3ccc(F)cc3)ccc2O1 | inactive | active | inactive
24 | C[C@H](CO)N1C[C@H](C)[C@H](CN(C)C(=O)CCCN(C)C)OCc2cn(nn2)CCCC1=O | inactive | inactive | inactive
25 | C[C@H]1CN([C@@H](C)CO)C(=O)c2cc(NC(=O)Nc3cccc4ccccc34)ccc2O[C@@H]1CN(C)Cc1ccc(C(=O)Nc2ccccc2N)cc1 | inactive | inactive | inactive
26 | C[C@@H]1CN([C@H](C)CO)C(=O)c2c(c3ccccc3n2C)-c2ccccc2CO[C@H]1CN(C)S(C)(=O)=O | inactive | inactive | inactive
27 | Cc1ccc(S(=O)(=O)N(C)C[C@@H]2Oc3ccc(NC(=O)C4CC4)cc3C(=O)N([C@@H](C)CO)C[C@H]2C)cc1 | inactive | active | inactive
